Self-cleavage data for 56 variants are collected here from the RNAGym collection of RNA variant scans (doi:10.7554/elife.90254).

B1: LINE1-mini (parent)
chain: GGCAGAGCUCAACACAGCGUGGCAAAGUGGCUGUGGCUAGACUGCC

The source gives no read counts; variants with many changes may rest on few reads.

The variants in the data set derive from B1. Nature of the data set: self-cleavage, relative activity (ratio to wild type); higher = more cleavage; in vitro, sequencing; the parent is a self-cleaving ribozyme.
CGCAGAGCUCACAACAGCGUGGCAAAGUGGCUGUGGCUGGACUUCC [G1C A12C C13A A39G G44U]: the self-cleavage worked out at 0.01.
Next, CGCAGGGCUAAACACAGCGUGACAAAGUGGCUGUGGCUAGACUGCC [G1C A6G C10A G22A]: 0.04; CGCAGAGCUGUACACAGCGUGGCAAAGUGGCUGUGGCUAGACUGCA [G1C C10G A11U C46A]: 0.02.
Next, CGCAGAGCUAAAUACAGCGUGGCAAAGUGACUGUGGCUAGACUGCC [G1C C10A C13U G30A]: 0.02; CGCAGAGCUCAACGCAGCGUGGCAAAGUGGCUGUGGCUAGACUGAC [G1C A14G C45A]: 0.01.
Next, CGCAGAGCUCAUCACAGCGGGGCAAAGUGGCUGUGGCUAGACUACC [G1C A12U U20G G44A]: 0.01; CGCAGGGCUCAACACAGCGUGGCAAAGUGGCUGUGACUAGACUUCC [G1C A6G G36A G44U]: 0.03; CGCAGAGCUCAACACAGCGUGGCACAGUGGCUUUCGCUAGACUGCC [G1C A25C G33U G35C]: 0.02.
For the variant CGUAGAGCUCAACUCAGCGUGGCAAAGUGGCUGUGGCUAGACUGCC [G1C C3U A14U], the self-cleavage came out at 0.1.
Then CGCAGAGCUCAGCACAGCGUGCCAAAGUGGCUGUGGCUAUACUGCC [G1C A12G G22C G40U], with 0.01; and AGCAGAGCUCAACACAGCGUGGCAAAGUGGCCGUGGCUAGAACGCC [G1A U32C C42A U43C], with 0.07.
Then CGCCGAGCUCAACACAGCGUGGCAAAGUGGCGGUGGCUAGACUGCC [G1C A4C U32G], with 0.05.
Next, CGUAGAGCUCAACACAGCGUGGCAAAGUGGCUGUGGUUAGACUGCC [G1C C3U C37U]: 0.2; CGCAGAGUUCAACACCGCUUGUCAAAGUGGCUGUGGCUAGACUGCC [G1C C8U A16C G19U G22U]: 0.16; CGCAGAGCUAAACACAGCGUGGCAAAGUGGCUGUCGCUAGACUGCC [G1C C10A G35C]: 0.
Consider CGCGGAGCUCAACACAGCGGGGCAAAGUGACUGUGGCUAGAUUGCC [G1C A4G U20G G30A C42U], for which the self-cleavage turned out to be 0.06.
Then CGCCGAGAUCUACACAGCGUGGCAAAGUCGCUGUGGCUAGACUGCC [G1C A4C C8A A11U G29C], with 0.03; and CGCAGAGCUCAACCCAGCGUUGCAAAGUGGCUGUGGCUAGAGUGCC [G1C A14C G21U C42G], with 0; and CGCAGAGCUCAUCACAGCGAGGCAAAGUGGCUGUGGCUAGACUGCC [G1C A12U U20A], with 0.04.
Then CGCAGAGCUGACAACAGCGUAGCAAAGUGGCUGUGGCUAGACUGCC [G1C C10G A12C C13A G21A], with 0.01.
Next, CGCUGAGCUAAACACAGCGUGGCAAAGUGGCUGUGGCUAGACUGCG [G1C A4U C10A C46G]: 0.02.
For CGCAGAGUUCAACAGAGCGUGGCAAAGUGGCUGCGGCUAGACUACC [G1C C8U C15G U34C G44A], the self-cleavage was determined as 0.2.
Then CGCAGAGCUUAACACAGCGUGGCCAAGUGGCUGUGGCUAGACUGCC [G1C C10U A24C], with 0.05; and CGCGGAGCUCAACACAGCGUGGCAAAGUGGUUGUGGCUAGACUGCC [G1C A4G C31U], with 0.02.
On to CGCAGAGCUCAGCACAGCGUGUCAAAGUGGCUGUGGCUAGACUGCC [G1C A12G G22U], for which the self-cleavage came to 0.
Then CGCAGAGCUCAACACUACGUGGCAAAGUGGCUGUGGCUAGACUGCC [G1C A16U G17A], with 0.02; and CGCAGAGCUCAACUCAGCCCGGCAAAGUGGCUGUGGCCAGACUGCU [G1C A14U G19C U20C U38C C46U], with 0.08.
Then CGCAGUGCUCAAUACAGCGUGGCAAAGUCACUGUGGCUAGACUGCC [G1C A6U C13U G29C G30A], with 0.02; and CGCAGAGCUCACCACAGCGUGGCAAAGUGGCUGAGGCUAGACUGCC [G1C A12C U34A], with 0.02; and CGCAGAGGUCAACACAGCGUGGCAAAGUGGCUGUGGCUAGACUACC [G1C C8G G44A], with 0.03.
Then CGCAGGGCUCAACACAGCGUGGCAAAGUGGCUGUUGCUAGACUGCA [G1C A6G G35U C46A], with 0.
For the variant CGCAGAGCUGAACACGGCAUGGCAAGGUGGCUGUGGCUAGACUGCC [G1C C10G A16G G19A A26G], the self-cleavage stood at 0.02.
Next, CGCAGAGAUCAACACAGCGCGGCAAAGUGGCUGUGGCUGGACUGCC [G1C C8A U20C A39G]: 0; CGCAGAGCUCAACACAGCGUGGCAAUGUGGCUGUGGCAAGACUGCC [G1C A26U U38A]: 0.03.
CGCGGAGCUCAACACAGCGCGGCUAAGUGGCUGAGGAUAGACUGCC [G1C A4G U20C A24U U34A C37A]: the self-cleavage came out at 0.01.
Next, CGCAGAGCUCAACACAGCGUGGCAACGUGGCUUUGGCUAAACUGCC [G1C A26C G33U G40A]: 0.05; CGUAGAGCUCAACACAGCGUGGCAAAGUGGCUGUGGCUACACUGCC [G1C C3U G40C]: 0.03.
As to CGCAGAGCUCAACACAGCGUGGCAUAGUGUCUGUGGCUAUACUGCC [G1C A25U G30U G40U], the self-cleavage is 0.03.
Then CGCAGGGCACAACACAGCGUGGCAAAUUGGCUGCAGCUAGACUACC [G1C A6G U9A G27U U34C G35A G44A], with 0.12; and CGCGGAGCUCAACACAGCGUGGCAAAGUGGCUGUGGCUGGACUGCC [G1C A4G A39G], with 0.02; and CGUACAGCUCAACACAGCGUGGCAAAGUGGCUGUGGCUAGACUGCC [G1C C3U G5C], with 0.07.
Next, CGAAGAGCUCAACAUAGCGUGGCAAAGUGGCUGUGGCUAGACUUCC [G1C C3A C15U G44U]: 0; CGCAGAGCUAAACACAGCGUGGCAAAGUGGCUGUGGGUAGACUGCC [G1C C10A C37G]: 0.01.
Next, CGCAGCGCUCAACACAGCGUGGCAAAGUGGCUGCGCCUAGACUGGC [G1C A6C U34C G36C C45G]: 0.
As to CGCAGAGCUCAACACGGGGUGGCAAUGUUGCUGUGGCUAGACUGCU [G1C A16G C18G A26U G29U C46U], the self-cleavage was 0.03.
Then CGCCGAGCUCAACACAGUUUGGCAAAGUUGCUGUAGGUAGACUGCC [G1C A4C C18U G19U G29U G35A C37G], with 0.02; and CGCAGAGCUCAACGGAGCGUGGCAAAGUGGCUGUGGCUAGACUGCC [G1C A14G C15G], with 0; and CGCAGAGAUCAUCACAGAGUUGCAAAGUGGCUGUGGCUAGCCUGCC [G1C C8A A12U C18A G21U A41C], with 0.02.
With CGCAGAGCUCAUUACAGAGUGGCAAAGUGGCUGUGCCUAGACUGCC [G1C A12U C13U C18A G36C], the self-cleavage is 0.01.
Then CGCAGAGCUCCACACAGCGUGGCAAAGUGGCUGUGACUAGACUGCC [G1C A11C G36A], with 0; and CGCAGAGAUCGACACAGCGUGGCAAAGUGGCUGUGGCUAUACUGCC [G1C C8A A11G G40U], with 0; and CGCAGAGCUCACCACAGCGUGGCAAAGUGGCUGGGGCUAUACUGGC [G1C A12C U34G G40U C45G], with 0.01.
Regarding CGCAGAGUUCAACACAGGGUGGCAAAGUGGCUGUGGCUAGAAUGCC [G1C C8U C18G C42A], the self-cleavage was determined as 0.
Then CGCAGAGCUCGACACAGCGUGGCAAAGUGGGUGUGGCUAGACUGCC [G1C A11G C31G], with 0.
Then AGCAGAGCUCAACACAGCGGGGCAAAGUGGCUGUGGGUAGACUGAC [G1A U20G C37G C45A], with 0.02; and CGCUGAGGUCAACACAGCGUGGCAAAGUGGCUGUGGCUAGACUGCU [G1C A4U C8G C46U], with 0.02.
